# From the supplement of paper PMC7826260
# This is one part of the list. Each Rep nickase domain was tested in vitro on the same pool of single strands (1 h at 37 °C, 3 µM enzyme); the outer parts of the 90-letter strands are left off. Uncut reads are compared with the no-enzyme pool on a log2 scale; the lower, the more was cut; hits are not called. The scaling is to total reads, so uncut sequences can rise above 0 when many others are cut.
# How the values were obtained:
# Assay in all cases: uncleaved DNA left, log2 of reads against the no-enzyme library (log2 ratio); higher = less cleavage (more negative = more Rep cleavage of the k-mer); sequences stand for … in CTCGTCCG…ACCGGAGA
# [1] = tested on: T1, Rep nickase domain of Muscovy duck circovirus
# T1 sequence (protein, residues 1-111, tag omitted): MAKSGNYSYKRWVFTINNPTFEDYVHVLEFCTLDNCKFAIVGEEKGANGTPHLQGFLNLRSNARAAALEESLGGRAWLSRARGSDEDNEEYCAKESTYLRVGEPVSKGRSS
# Procedure: (§1)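 A pool of 90-nt single-stranded DNAs with seven random bases just before the constant AC of the nick site (name = the seven bases) was cut by 3 µM recombinant His6-SUMO-tagged Rep nickase domain (300 nM DNA, 50 mM HEPES pH 8.0, 50 mM NaCl, 1 mM MnCl2, 1 h, 37 °C, three replicates). Uncut DNA was amplified and sequenced.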
# [2] = tested on: T2, Rep nickase domain of banana bunchy top virus
# T2 sequence (protein, residues 1-94, tag omitted): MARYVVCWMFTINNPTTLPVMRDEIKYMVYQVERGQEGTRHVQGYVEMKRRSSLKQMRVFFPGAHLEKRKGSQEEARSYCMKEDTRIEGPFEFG
# Procedure: as §1
# [3] = tested on: T3, Rep nickase domain of cabbage leaf curl virus
# T3 sequence (protein, residues 1-116, tag omitted): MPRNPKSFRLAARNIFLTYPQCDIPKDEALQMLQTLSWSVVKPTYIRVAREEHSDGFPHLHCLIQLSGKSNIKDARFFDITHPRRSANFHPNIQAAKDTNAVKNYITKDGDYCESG
# Procedure: as §1
# [4] = tested on: T4, Rep nickase domain of chickpea chlorotic dwarf virus
# T4 sequence (protein, residues 1-124, tag omitted): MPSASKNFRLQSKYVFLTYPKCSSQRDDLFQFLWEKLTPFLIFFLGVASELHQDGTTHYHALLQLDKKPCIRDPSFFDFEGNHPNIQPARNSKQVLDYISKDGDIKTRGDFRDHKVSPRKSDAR
# Procedure: as §1
# [5] = tested on: T5, Rep nickase domain of faba bean necrotic yellows virus
# T5 sequence (protein, residues 1-98, tag omitted): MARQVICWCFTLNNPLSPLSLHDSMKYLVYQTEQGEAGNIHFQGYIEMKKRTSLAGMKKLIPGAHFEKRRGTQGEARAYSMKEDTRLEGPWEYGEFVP
# Procedure: as §1
# [6] = tested on: T6, Rep nickase domain of maize striate mosaic virus
# T6 sequence (protein, residues 1-117, tag omitted): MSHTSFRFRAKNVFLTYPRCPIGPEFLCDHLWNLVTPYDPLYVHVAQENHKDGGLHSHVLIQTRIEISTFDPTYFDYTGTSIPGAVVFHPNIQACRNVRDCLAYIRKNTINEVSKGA
# Procedure: as §1
# [7] = tested on: T7, Rep nickase domain of porcine circovirus 2
# T7 sequence (protein, residues 2-116, tag omitted): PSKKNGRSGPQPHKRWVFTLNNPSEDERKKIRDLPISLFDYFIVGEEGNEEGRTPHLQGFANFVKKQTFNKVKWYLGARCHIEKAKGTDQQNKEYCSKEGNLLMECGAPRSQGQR
# Procedure: as §1
# [8] = tested on: T8, Rep nickase domain of tomato golden mosaic virus
# T8 sequence (protein, residues 1-124, tag omitted): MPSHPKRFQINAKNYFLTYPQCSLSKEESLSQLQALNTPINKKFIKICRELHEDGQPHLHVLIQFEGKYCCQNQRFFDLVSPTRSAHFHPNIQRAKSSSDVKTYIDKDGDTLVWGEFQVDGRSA
# Procedure: as §1
# [9] = tested on: T9, Rep nickase domain of tomato yellow leaf curl virus
# T9 sequence (protein, residues 1-136, tag omitted): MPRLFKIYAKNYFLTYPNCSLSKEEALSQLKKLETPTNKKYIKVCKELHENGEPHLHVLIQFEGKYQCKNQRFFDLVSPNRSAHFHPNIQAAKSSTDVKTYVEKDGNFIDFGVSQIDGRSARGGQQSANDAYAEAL
# Procedure: as §1
# [10] = tested on: T10, Rep nickase domain of wheat dwarf virus
# T10 sequence (protein, residues 1-137, tag omitted): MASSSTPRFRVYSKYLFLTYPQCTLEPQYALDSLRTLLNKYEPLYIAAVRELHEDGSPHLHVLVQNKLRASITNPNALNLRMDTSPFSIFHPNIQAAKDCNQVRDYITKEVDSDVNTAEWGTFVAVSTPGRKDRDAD
# Procedure: as §1
Sequence,uncleaved DNA left (log2) [1],uncleaved DNA left (log2) [2],uncleaved DNA left (log2) [3],uncleaved DNA left (log2) [4],uncleaved DNA left (log2) [5],uncleaved DNA left (log2) [6],uncleaved DNA left (log2) [7],uncleaved DNA left (log2) [8],uncleaved DNA left (log2) [9],uncleaved DNA left (log2) [10]
GCTTGAG,0.0881,0.0607,-0.559,-0.118,0.0353,-0.823,0.168,0.0437,0.0719,0.0145
TTGTGTG,0.0163,-0.0405,-0.742,-0.341,-0.00783,-1.19,0.118,-0.0118,-0.00806,-0.165
GGCCGTA,-0.00271,0.0858,0.476,0.884,0.0692,1.37,0.0088,0.0768,0.00642,0.0376
CTTCGCG,0.048,0.0727,-0.786,-0.131,0.137,-0.91,0.0854,-0.0268,0.13,0.000345
TTGATTT,-0.0437,-0.22,0.0509,-2.01,0.0435,-0.444,-1.11,-0.0508,0.039,-0.12
TTTAGAC,0.0825,0.0525,0.364,0.424,0.125,0.0219,0.0751,0.00411,0.121,0.000568
TGCGAAT,0.0175,-0.0116,-0.15,0.36,-0.0646,0.33,0.00756,-0.18,-0.08,-0.0206
CAGAACG,-0.0663,0.0165,-0.859,-0.409,-0.116,-1.26,0.0122,-0.0848,-0.0957,-0.122
TTAGGCA,0.164,0.117,0.25,0.545,0.116,0.335,0.148,0.127,0.111,0.115
CTCTGTC,0.0968,-0.0528,0.0019,-0.0531,0.08,-0.626,0.121,-0.0106,0.198,0.214
ATCCCGT,0.141,0.00525,-0.276,-0.795,0.105,-0.753,0.146,0.0189,0.0986,0.0147
CGTCCGC,0.0312,0.0531,0.0257,0.233,0.0575,0.239,0.0206,-0.0288,0.185,0.028
GGGTTGG,0.0414,0.0704,0.612,1.27,0.000601,1.57,0.217,0.0248,-0.0128,0.0325
TGCACAA,0.0826,0.0609,-0.00875,0.241,-0.0758,-0.237,-0.0271,-0.035,0.0227,0.146
TTGGCCG,0.00441,-0.0787,-0.812,-0.186,-0.0796,-1,0.0398,-0.0881,-0.0318,-0.0994
CCGTTTT,-2.38,-0.361,-0.381,-1.87,-0.452,-0.158,-2.83,-0.291,-0.138,-0.712

Sequence,uncleaved DNA left (log2) [1],uncleaved DNA left (log2) [2],uncleaved DNA left (log2) [3],uncleaved DNA left (log2) [4],uncleaved DNA left (log2) [5],uncleaved DNA left (log2) [6],uncleaved DNA left (log2) [7],uncleaved DNA left (log2) [8],uncleaved DNA left (log2) [9],uncleaved DNA left (log2) [10]
CCCGACC,-0.0977,-0.0458,-0.125,0.00866,0.0252,-0.689,-0.0846,0.0233,-0.135,-0.212
TGCGGGA,0.0812,-0.0405,-0.112,-0.256,0.00872,-0.351,0.0171,-0.0533,-0.0841,0.0241
TAAAGGA,0.197,0.142,0.234,-0.029,0.16,-0.122,0.238,0.2,0.114,0.179
CTTTGCC,-0.127,-0.133,-0.974,-0.921,-0.109,-1.29,-0.771,-0.168,0.0858,-0.166
CAAAACT,0.00501,0.00456,-3.01,-3.49,0.0353,-1.43,-1.07,-0.784,0.0869,-1.32
GCCCGCT,-0.118,-0.0882,-0.152,-0.334,-0.0752,-0.658,-0.109,-0.063,-0.101,0.0182
CCGAGAA,0.205,0.0596,0.714,1.16,0.121,1.13,-0.00208,0.108,0.0907,0.0514
GGCAACC,0.196,0.144,0.621,1.1,0.0762,1.73,-0.767,0.0815,0.101,0.166
ATGACCT,-0.169,0.0727,-0.00272,0.323,0.00576,0.779,-0.126,-0.0464,-0.0603,0.112
TAACGTG,-0.0157,-0.0344,-0.732,-1.57,-0.00224,-1.18,0.112,-0.0433,-0.0274,-0.228
ATTGCCT,-0.0492,-0.157,-0.644,-1.28,-0.102,-1.04,-0.38,-0.172,-0.125,-0.145
CTTAGAC,0.0542,0.0259,0.199,0.239,-0.0426,-0.347,0.168,0.0295,0.0926,0.0426
TAGGATC,0.236,0.113,0.404,1.25,0.164,1.43,0.189,0.141,0.0975,0.129
CGTATAC,0.0891,-0.018,0.00448,-0.524,0.0558,-0.393,0.0273,0.0171,-8.98e-05,-0.00952
ATGTGGT,-0.088,0.027,0.144,0.879,-0.169,1.16,-2.34,-0.00828,-0.0736,-0.0252
